# Laboratory results as given in the supplement of paper PMC11417369.
# ± gives the standard deviation of the averaged measurements. The list shows a part of the results.
# Tested on: PfAP2-G AP2 domain (GST-tagged)
# Test: gcPBM binding intensity (ln(normalized median fluorescence intensity)); higher = stronger DNA binding
# Summary of the method: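 The highest Masliner-normalised natural-log median intensity across replicate spots of either probe orientation is reported as binding intensity. GST-tagged P. falciparum DNA-binding domains expressed in E. coli were applied for 1 h to an Agilent 4 × 180k array of primer-extended double-stranded 36-bp intergenic genomic probes plus negative controls, and bound protein was detected with Alexa488 anti-GST antibody and scanned at 488 nm.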
row,Sequence,gcPBM binding intensity (ln)
1,AATAAAAAAATGTCACGTACTTATTTTATTAAACCT [XGTACX_site3031],11.2 ± 0.8
2,TTATATGCTCAATGTTGTACATGTAGATATATATAT [XGTACX_site8211],11.2 ± 0.8
3,ATATATATATATAGTGCACACATATAAAATATATAT [CACACA_site8884],10.6 ± 0.83
4,ATCTGTCGACAGGACAGTACACAGTAGCCAGTAACT [XGTACX_site2001],11 ± 0.52
5,ATCCTACTATGTTATACACACAATTACTTTTTTCTC [CACACA_site3712],10.1 ± 0.12
6,ATATGTAAAACTTCAAAAAAATATATTTTATGACGA [GTGCAC_negctrl_site324],9.76 ± 0.11
7,TTACAACAGAATGGTATTTTTTTATTTTAAAGAAAA [TGCATGCA_negctrl_site230],9.85 ± 0.014
8,AATATTTATGTGAAGACACACAACTGTTTATTATAT [CACACA_site3447],10.02 ± 0.049
9,ATATTAGAAATATGAATAGAAAGAATATATAAGTAT [CACACA_negctrl_site682],9.76 ± 0.37
10,ATTCTACACCCACATACACACATATATATATATATA [CACACA_site3426],10.3 ± 0.23
11,TGTTCAAATTTATTCGATCTTTATATTTAATAAAAC [CACACA_negctrl_site781],9.76 ± 0.071
12,TTTTTTTTTTTTTGGTGTACTTTTTTTAGAACGCAA [XGTACX_site4207],11.6 ± 1.2
13,AAAAATGAAAGGTGTACACATACAAACATAGAAAGA [CACACA_site5020],11.7 ± 0.94
14,AAAATTTATATAGGCACACAAATAAATTAATACATA [CACACA_site1418],10.2 ± 0.26
15,TTTTTTCTTTCTTTCAAACACACATTAATTTTATTC [CACACA_site2733],9.86 ± 0.21
16,ATTCAGTTCTATAATACACACATATATTGACATTAT [CACACA_site7309],10.1 ± 0.11
17,ATATTCTTCTAAAGGCGTACATCTACATTTATGAAA [XGTACX_site2145],11.4 ± 0.96
18,GTTAGCTCGTTCGGAGCACACACATATATATATATA [CACACA_site8595],10.3 ± 0.37
19,AGATACTTTCCTCAAACACACAAAACTATACAACAA [CACACA_site1474],10.3 ± 0.32
20,TTTGATGGTACACGTACACACCTTGCAAATATTTTT [CACACA_site4645],11.8 ± 1
21,TGAAAGAACCTGATTACACACATAAATTATATATAT [CACACA_site26],9.8 ± 0.11
22,TGTATGTTGTAAAATTGTACATATATATTATATTTA [XGTACX_site4883],11 ± 0.33

row,Sequence,gcPBM binding intensity (ln)
1,ATGAATATAATAAAGAAACACACGTATACATAATGA [CACACA_site1355],10.3 ± 0.11
2,AAAAGATAATTATGCACACACACACCCAGACACAAC [CACACA_site5428],10.6 ± 0.53
3,AATTATATTCTATTCACACATATTCCAACCTCTTTT [CACACA_site4670],10.02 ± 0.021
4,TGTATTCATACATGCACACGTACATATTTAAATATA [CACACA_site3926],11.3 ± 0.7
5,AGTTCTTCGTACCAAAAAACGGCACGCATATGTATA [TGCATGCA_negctrl_site469],10.6 ± 0.38
6,TCTATTCAAAATAAAAGTACTAGCATGTGAATTGTT [XGTACX_site5530],11.2 ± 0.76
7,TACAAGTTTTTAAAGTGTACCAAAAAAAAAGAATAA [XGTACX_site979],11.3 ± 0.76
8,TTCATTTATTTACTTACACACTTTATATATGTGGTT [CACACA_site4901],10 ± 0.15
9,TATTTCAAAAAAAAAAAAAATAAAAAACAACAACAA [CACACA_negctrl_site893],9.96 ± 0.35
10,AAAAAAAATTATATATGTACTTATTAATCCTTATAT [XGTACX_site1389],11.3 ± 0.85
11,ATTTATATATCGCCCACACACATGTGATTATTTATA [CACACA_site6905],10.34 ± 0.035
12,TACTACTATCTATATTGTACAAAAGGTGCCTACAAA [XGTACX_site4267],10.9 ± 0.39
13,ATATATAAAATATACACACATACTGTTCATTTAAAG [CACACA_site4169],9.935 ± 0.049
14,AAGAGAAATTATAACATGTGAAATGTATTATATATA [TGCATGCA_negctrl_site254],9.58 ± 0.37
15,ATTTATATATAATATACACACATATAATCCACATAT [CACACA_site699],10.15 ± 0.035
16,AAAAATAAAAAAATGACACACATATATATATATATA [CACACA_site2307],10.1 ± 0.35
17,TATCTCTTATTTTATTGTACTTAACTATGCTATAAT [XGTACX_site4904],11.3 ± 0.66
18,TAAGTATAATATTGATGTACATATAATAACTTGTAT [XGTACX_site417],11.2 ± 0.59
19,CATATGATATGTTATACACACACGTATATATGAATT [CACACA_site3446],10.2 ± 0.071
20,TAGTTAACAAATAATGCACACAAATGGATAAAATTA [CACACA_site9240],10.17 ± 0.057
21,ATTCAAATTGTAGAAACACACAAAAACTTAACATAT [CACACA_site2617],10.06 ± 0.014
22,ATGAACATACAATATACACACATATATATTTATATT [CACACA_site4609],9.96 ± 0.057

row,Sequence,gcPBM binding intensity (ln)
1,AAGGGAAAATTAAGGTTGCACTAAAAATATATCTTT [GTGCAC_site9608],9.9 ± 0.014
2,AGATACGATTATATGCGTTCAATATACCAAATAATT [TGCATGCA_negctrl_site501],10.1 ± 0.2
3,CACGCGCCCGGACACACACACACACCCATATATATA [CACACA_site5251],10.8 ± 0.57
4,GAATAAATATTAAATGTGCACTTGAATAGATGTAAA,10.2 ± 0.17
5,TTTTTCATCATATGTTGTACAATGTGTAGATATATT [XGTACX_site3195],11.2 ± 0.76
6,GATAAATGTATATATGCATGCACATATATTTATACA [TGCATGCA_site748],9.83 ± 0.071
7,CGTAGCCACACTAACACACACAAATATACACAATCA [CACACA_site7379],10.2 ± 0.23
8,ATTTAAATAACGTATGTATATACATATATATATATA [TGCATGCA_negctrl_site207],10.1 ± 0.43
9,TATTTTGTATATAAATGTACAAGTATATATTTTTTC [XGTACX_site7855],11 ± 0.65
10,TATTTGTAATATTATACACACATTATATATTACAAA [CACACA_site5804],9.98 ± 0.27
11,TATGAATATTTGTATACATGCATATAGAAATCATAT [TGCATGCA_site533],9.8 ± 0.028
12,ATATATTATATATATATATATATATATTATTATTGT [TGCATGCA_negctrl_site286],9.84 ± 0.45
13,TGCATTATTTACAAGGTGCGTTACAAATGTGTAACA [GTGCAC_site9442],10 ± 0.2
14,GCTTTAATCTGAAAGTGTACAGATAATATATTTATA [XGTACX_site2462],11.2 ± 0.8
15,ATATGGTGATATAGGTGTACATTTTGATGCTTATTT [XGTACX_site4283],11.3 ± 0.71
16,TTATACATGAAATATTGTACACATATATATATATAT [XGTACX_site4378],11.4 ± 0.86
17,TACTATAACGCACATACACACAAAAAAAAAAAAAAA [CACACA_site8073],10.2 ± 0.68
18,TATATATATATTTTTGCATGTAATTTTTATGAGGAC [TGCATGCA_site884],9.95 ± 0.26
19,TTACTCAAACAAACAAAAAAAAAAAAAAAAAAAAAA [TGCATGCA_negctrl_site457],9.53 ± 0.3
20,TTTTTTTTTTTCTTAGTGCGCGTGAAAAATATAAAA,10.4 ± 0.49
21,AATTAGATTATGCACACACACTTAAAAATAATAAAT [CACACA_site7015],10.2 ± 0.22
22,ATTTTTTATGGACAAAAGACCTCTGATGTAAATATA [CACACA_negctrl_site1081],10.8 ± 0.65

row,Sequence,gcPBM binding intensity (ln)
1,ATATATAGAATGTGTACACACATATGTATTTATATA [CACACA_site810],11.6 ± 0.86
2,CTTTCTCTCAAAATGACATGCAATTTGTTTCTTTTT [TGCATGCA_site169],9.64 ± 0.16
3,ATTATTGATTTATAAACACACACTCGAAGATGTTTA [CACACA_site8294],9.98 ± 0.15
4,TTGAAATACTTTATTTGTACATATAGCAAAGTGTAT [XGTACX_site8782],11 ± 0.59
5,ATTTTTTCTAGACATGCATGTGAAATTTACTTTTTT [TGCATGCA_site305],9.945 ± 0.078
6,ATATATATATATATTTGTACTTAATTGATTTTACTT [XGTACX_site2663],10.9 ± 0.53
7,ATGCGTTTAGCAAAAAGTACATATATATATAATATT [XGTACX_site1928],11.2 ± 0.73
8,ATTTTTTTTTAATGCAATATATTTTGAAAATTTTAT [CACACA_negctrl_site753],9.855 ± 0.049
9,TTTTTTTTTTTTTTTACACACTTTATTCAAACAACT [CACACA_site4104],9.94 ± 0.52
10,CTTTTTTTTTTTTTTGCACACACATATATAAATATA [CACACA_site3950],10.3 ± 0.24
11,AGTGGAAATTTTATTTGTACATAAATATTTACATAC [XGTACX_site633],10.9 ± 0.66
12,AAAAAAATATATAATAGTACATATATAGGAATATAT [XGTACX_site4591],10.9 ± 0.59
13,TAATATCTTGAGTCATCACACATTGATTAATGAATC [CACACA_site5735],9.63 ± 0.15
14,TGAATACAGATATTCACACAAATAGTTTTGATATAT [CACACA_site5527],9.68 ± 0.16
15,TTTTTTTTTTTTTTTTTTTTTTTTTCATATTAATAT [GTGCAC_negctrl_site351],9.52 ± 0.33
16,AATTTATTAAAAAAATGTACTTATTTTTTTGTATAA [XGTACX_site5844],11.2 ± 0.79
17,ATTGATACATCCAATACACACTACATATTATGATGT [CACACA_site6965],10.2 ± 0.13
18,TTGGCATACAGACACACACACACACCCCCACATATA [CACACA_site590],10.8 ± 0.54
19,ACATATTGTAGATATTGTACATATTGTGTATATATT [XGTACX_site7620],10.9 ± 0.64
20,TATATATATGTTCTTACACACACGAATATATATATG [CACACA_site3304],10.1 ± 0.13
21,AATATGGAATGAAATAACAATCGGGAGTATATTACC [CACACA_negctrl_site93],10.3 ± 0.13
22,ACGATTCAAAGGGAATATAAAATATTATTATCTATA [CACACA_negctrl_site1739],9.54 ± 0.26
